Our source for the cell count values is the supplement of paper PMC4604168 (melanoma cell lines).

The list shows a part of the results. Single values are uncertain, as repeats are few or missing.
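Further: cell number obtained by counting DAPI-stained nuclei in high-throughput microscope images with image analysis software, screen run in 1,536-well plates.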

For this experiment, the system named is COLO800. As to the kind of experiment: cell count relative to DMSO control; melanoma cells; higher = more viable cells. The settings on record: library dose: low library concentration; 72 h.
`COCC[n+]1c2c(n(Cc3cnccn3)c1C)C(=O)c1ccccc1C2=O` + O=C(CCCCCCC(=O)Nc1ccccc1)NO [vorinostat] (first compound 0.0004 µM, partner dose 0.08 µM) registered a cell count of 69.3%.

In the case of `OCc1c[nH]c2ccccc12` [Indole-3-carbinol] + Cn1c(Nc2ccc(C(F)(F)F)cc2)nc2cc(Oc3ccnc(-c4ncc(C(F)(F)F)[nH]4)c3)ccc21 [CHIR265] (first compound 0.8 µM, partner dose 0.08 µM), the cell count came out at 68%. The compound `COCC[n+]1c2c(n(Cc3cnccn3)c1C)C(=O)c1ccccc1C2=O` + Nc1cccc2c1CN(C1CCC(=O)NC1=O)C2=O [lenalidomide] (first compound 0.0004 µM, partner dose 1 µM) returned a cell count of 94.4%.

`COCC[n+]1c2c(n(Cc3cnccn3)c1C)C(=O)c1ccccc1C2=O` + Cn1nnc2c(C(N)=O)ncn2c1=O [temozolomide] (first compound 0.0004 µM, partner dose 2 µM) showed a cell count of 71.8%. In turn, `Clc1ccc(Nc2nnc(Cc3ccncc3)c3ccccc23)cc1` [vatalanib] + COc1ccc(Cl)c(Nc2nc3ccccc3nc2NS(=O)(=O)c2cccc(NC(=O)C(C)(C)N)c2)c1 [XL147] (first compound 2 µM, partner dose 0.8 µM) displayed a cell count of 73.1%. Consider `Cn1c(Nc2ccc(C(F)(F)F)cc2)nc2cc(Oc3ccnc(-c4ncc(C(F)(F)F)[nH]4)c3)ccc21` + C[C@@H]1CCN(C(=O)CC#N)C[C@@H]1N(C)c1ncnc2[nH]ccc12 [CP690550] (first compound 0.08 µM, partner dose 1 µM), for which the cell count was 146%. In turn, `Clc1ccc(Nc2nnc(Cc3ccncc3)c3ccccc23)cc1` [vatalanib] + Cc1nc(Nc2ncc(C(=O)Nc3c(C)cccc3Cl)s2)cc(N2CCN(CCO)CC2)n1 [dasatanib] (first compound 2 µM, partner dose 0.004 µM) returned a cell count of 66.7%. As to `C#Cc1cccc(Nc2ncnc3cc(OCCOC)c(OCCOC)cc23)c1` [erlotinib] + Nc1cccc2c1CN(C1CCC(=O)NC1=O)C2=O [lenalidomide] (first compound 0.8 µM, partner dose 1 µM), the cell count stood at 104%. `Clc1ccc(Nc2nnc(Cc3ccncc3)c3ccccc23)cc1` [vatalanib] + Cn1nnc2c(C(N)=O)ncn2c1=O [temozolomide] (first compound 2 µM, partner dose 2 µM) gave a cell count of 87.9%. Consider `Clc1ccc(Nc2nnc(Cc3ccncc3)c3ccccc23)cc1` [vatalanib] + C[C@]1(c2nc3c(C(N)=O)cccc3[nH]2)CCCN1 [Veliparib] (first compound 2 µM, partner dose 1.4 µM), for which the cell count turned out to be 74.7%. `C#Cc1cccc(Nc2ncnc3cc(OCCOC)c(OCCOC)cc23)c1` [erlotinib] + C[C@]1(c2nc3c(C(N)=O)cccc3[nH]2)CCCN1 [Veliparib] (first compound 0.8 µM, partner dose 1.4 µM): the cell count turned out to be 93.5%.

For `OCc1c[nH]c2ccccc12` [Indole-3-carbinol] + Cn1nnc2c(C(N)=O)ncn2c1=O [temozolomide] (first compound 0.8 µM, partner dose 2 µM), the cell count turned out to be 94.7%. With `Cn1c(Nc2ccc(C(F)(F)F)cc2)nc2cc(Oc3ccnc(-c4ncc(C(F)(F)F)[nH]4)c3)ccc21` + Nc1cccc2c1CN(C1CCC(=O)NC1=O)C2=O [lenalidomide] (first compound 0.08 µM, partner dose 1 µM), the cell count turned out to be 79.9%. As for `Nc1cccc2c1CN(C1CCC(=O)NC1=O)C2=O` (stereo unspecified) [lenalidomide] + Cn1nnc2c(C(N)=O)ncn2c1=O [temozolomide] (first compound 1 µM, partner dose 2 µM), the cell count was 117%. For the compound `O=C(CCCCCCC(=O)Nc1ccccc1)NO` [vorinostat] + COc1cc(Nc2ncc(F)c(Nc3ccc4c(n3)NC(=O)C(C)(C)O4)n2)cc(OC)c1OC [Tamatinib] (first compound 0.08 µM, partner dose 0.4 µM), the cell count came to 102%.

The compound `Cn1c(Nc2ccc(C(F)(F)F)cc2)nc2cc(Oc3ccnc(-c4ncc(C(F)(F)F)[nH]4)c3)ccc21` + Cn1cncc1[C@@](N)(c1ccc(Cl)cc1)c1ccc2c(c1)c(-c1cccc(Cl)c1)cc(=O)n2C [tipifarnib] (first compound 0.08 µM, partner dose 0.01 µM) gave a cell count of 59.5%.
